{"source": "paper PMC4336329", "about": "(PLoS ONE, 2015)", "note": "The whole screen tested about 310,000 compounds, of which about 14,000 (4.5%) showed an effect of 50% or more. Effects have a minus sign here. The list shows a part of the results.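 Also: peak tail current of the secondary pulse compared with the same well before compound.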"}
{"molecular_target": "human ether-à-go-go-related gene (hERG) potassium channel (human, UniProt Q12809)", "sequence (Q12809 whole entry, looked up)": "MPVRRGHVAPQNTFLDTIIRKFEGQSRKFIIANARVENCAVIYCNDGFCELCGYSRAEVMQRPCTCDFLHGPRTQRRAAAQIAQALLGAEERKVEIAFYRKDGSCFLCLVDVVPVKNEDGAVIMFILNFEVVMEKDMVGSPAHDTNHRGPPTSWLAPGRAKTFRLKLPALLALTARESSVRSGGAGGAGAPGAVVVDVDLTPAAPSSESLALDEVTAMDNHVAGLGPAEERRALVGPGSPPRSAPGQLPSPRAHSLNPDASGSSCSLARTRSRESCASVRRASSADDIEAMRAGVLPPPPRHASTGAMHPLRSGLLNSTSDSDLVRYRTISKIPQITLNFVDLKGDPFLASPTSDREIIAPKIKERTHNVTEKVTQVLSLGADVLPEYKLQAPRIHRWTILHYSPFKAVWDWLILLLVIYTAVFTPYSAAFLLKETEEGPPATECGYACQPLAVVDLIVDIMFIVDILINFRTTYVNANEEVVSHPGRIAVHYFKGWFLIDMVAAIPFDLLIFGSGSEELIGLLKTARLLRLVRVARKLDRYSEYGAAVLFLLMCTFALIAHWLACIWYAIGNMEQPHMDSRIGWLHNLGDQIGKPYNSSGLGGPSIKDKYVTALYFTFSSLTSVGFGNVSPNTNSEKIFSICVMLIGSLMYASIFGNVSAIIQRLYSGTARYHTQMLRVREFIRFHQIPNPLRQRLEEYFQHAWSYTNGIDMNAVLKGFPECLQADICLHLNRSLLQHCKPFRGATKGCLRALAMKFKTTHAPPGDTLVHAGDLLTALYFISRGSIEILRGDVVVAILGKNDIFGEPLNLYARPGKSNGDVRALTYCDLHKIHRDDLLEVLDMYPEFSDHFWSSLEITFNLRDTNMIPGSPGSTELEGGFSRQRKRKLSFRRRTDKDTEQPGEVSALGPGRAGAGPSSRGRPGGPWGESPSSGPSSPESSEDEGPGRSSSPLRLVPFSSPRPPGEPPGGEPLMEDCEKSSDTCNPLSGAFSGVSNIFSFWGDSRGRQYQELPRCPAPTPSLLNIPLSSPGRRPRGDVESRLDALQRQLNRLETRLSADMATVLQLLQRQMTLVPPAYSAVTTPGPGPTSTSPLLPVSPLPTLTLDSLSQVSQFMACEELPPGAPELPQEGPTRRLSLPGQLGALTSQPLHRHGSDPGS", "assay": "primary screen, population patch clamp on CHO cells stably expressing hERG", "units": {"hERG current change (%, negative = inhibition) at 10uM": "%"}}
{"smiles": "COC(=O)c1cc2occc2n1Cc1cccc(C)c1", "hERG current change (%, negative = inhibition) at 10uM": 8.35}
{"smiles": "O=C(N/N=C/c1cccc(C(F)(F)F)c1)c1ccc(O)cc1", "hERG current change (%, negative = inhibition) at 10uM": 31.4}
{"smiles": "CCc1ccc(C(=O)N2CCN(c3ccc(NC(=O)c4ccco4)cc3)CC2)cc1", "hERG current change (%, negative = inhibition) at 10uM": -16.6}
{"smiles": "Cc1ccc(C(=O)NCc2ccco2)o1", "hERG current change (%, negative = inhibition) at 10uM": 24}
{"smiles": "COc1ccc(CCNC(=O)COC(=O)Cn2cnc3ccccc32)cc1OC", "hERG current change (%, negative = inhibition) at 10uM": 26.1}
{"smiles": "COc1ccc(S(=O)(=O)N2CCc3ccccc32)cc1C(=O)NCCc1ccccn1", "hERG current change (%, negative = inhibition) at 10uM": -24.2}
{"smiles": "Cc1nnc2n1N=C(c1ccc(F)cc1F)CS2", "hERG current change (%, negative = inhibition) at 10uM": -3.32}
{"smiles": "COc1ccc(C2/C=C\\CN(C(=O)OCc3ccccc3)CC(=O)N2Cc2ccc(F)cc2)cc1", "note": "(centres unmarked)", "hERG current change (%, negative = inhibition) at 10uM": -26}
{"smiles": "CCCN1C(=O)/C(=C2/C=Cc3ccccc3N2CC)SC1=S", "hERG current change (%, negative = inhibition) at 10uM": 14.6}
{"smiles": "CCCCc1cc(=O)oc2cc(OC(C)C(=O)NCC3CCC(C(=O)O)CC3)c(Cl)cc12", "note": "(centres unmarked)", "hERG current change (%, negative = inhibition) at 10uM": 5.76}
{"smiles": "CCOC(=O)c1ccccc1NC(=O)COC(=O)c1ccc(C)c(S(=O)(=O)N2CCOCC2)c1", "hERG current change (%, negative = inhibition) at 10uM": -17.5}
{"smiles": "O=C(CCN1C(=O)/C(=C/c2ccccc2Cl)SC1=S)Nc1ccccc1C(=O)O", "hERG current change (%, negative = inhibition) at 10uM": 19.9}
{"smiles": "O=C(CSc1cccc2cccnc12)Nc1cc(C(=O)O)cc(C(=O)O)c1", "hERG current change (%, negative = inhibition) at 10uM": 23.1}
{"smiles": "Cc1ccc(NC(=O)CSc2nnc(-c3cnccn3)n2Cc2ccco2)cc1C", "hERG current change (%, negative = inhibition) at 10uM": -17.6}
{"smiles": "O=S(=O)(Nc1cccc(-c2ccc3nncn3n2)c1)c1cccc(F)c1", "hERG current change (%, negative = inhibition) at 10uM": -38.2}
{"smiles": "COc1cccc(/C=N/NC(=O)CN(C)S(=O)(=O)c2ccccc2)c1OC", "hERG current change (%, negative = inhibition) at 10uM": -10.6}
{"smiles": "Cc1ccc(C)c(S(=O)(=O)NCc2cccnc2)c1", "hERG current change (%, negative = inhibition) at 10uM": 5.24}
{"smiles": "COC(=O)c1[nH]c2ccccc2c1NC(=O)CN1CCN(Cc2ccc3c(c2)OCO3)CC1", "hERG current change (%, negative = inhibition) at 10uM": -73.7}
{"smiles": "COc1ccc(CNC(=S)Nc2cc(C)cc(C)c2)cc1", "hERG current change (%, negative = inhibition) at 10uM": 2.91}
{"smiles": "Cc1oc(C)c2c(=O)ccc3c(c12)OC(N)=C(C#N)C3c1ccccc1", "note": "(centres unmarked)", "hERG current change (%, negative = inhibition) at 10uM": 12}
{"smiles": "C/C(=N\\OC(=O)Nc1ccccc1)c1cnn(-c2cc(C(F)(F)F)cc(C)n2)c1C", "hERG current change (%, negative = inhibition) at 10uM": 5.54}
{"smiles": "CC(=O)c1ccc(N2CCN(S(=O)(=O)c3cccc(S(=O)(=O)N4CCOCC4)c3)CC2)cc1", "hERG current change (%, negative = inhibition) at 10uM": -6.92}
{"smiles": "CN1CCN(NC(=O)CN2C(=O)/C(=C/c3ccccc3Cl)SC2=S)CC1", "hERG current change (%, negative = inhibition) at 10uM": -18.4}
